Screen size: about 50,000 compounds; about 800 (1.6%) showed an effect of 50% or more. This is one part of the list.

The target of this assay is Bcl-2-like protein 10 (Homo sapiens) (UniProt Q9HD36). Nature of the assay: TR3 peptide-Bcl-B binding displacers, biochemical primary FP assay, phenotype converters (AID 1240).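 Also: 0% = Bcl-B with tracer peptide and DMSO and 100% = tracer peptide lacking Bcl-B.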 As to conditions: GST-Bcl-B / FITC-TR3 peptide fluorescence polarization; stronger effect = higher value; compound at 3.75 mg/L. A general note: Fluorescence polarisation rises when a labelled molecule tumbles more slowly, as on binding a larger partner.
UniProt Q9HD36, sequence (Q9HD36 whole entry, looked up): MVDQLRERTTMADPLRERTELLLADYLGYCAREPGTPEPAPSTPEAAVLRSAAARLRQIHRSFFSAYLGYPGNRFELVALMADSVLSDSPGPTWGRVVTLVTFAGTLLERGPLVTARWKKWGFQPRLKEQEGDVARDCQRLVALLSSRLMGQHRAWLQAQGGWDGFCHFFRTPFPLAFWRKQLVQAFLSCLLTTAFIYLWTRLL
In the case of `Cc1cc(/C=C2/NC(=O)NC2=O)c(C)n1-c1ccc(N2CCOCC2)cc1`, the displacement is -5.1%. Consider `O=C1CC(c2ccccc2)CN1C(=O)C12CC3CC(CC(C3)C1)C2` (stereo not given), for which the displacement was -8%. `Oc1ccc(/C=N/N2CCN(Cc3ccc(Cl)cc3)CC2)cc1O`: the displacement was 17.4%. Take `CCN(C(=O)c1cccc([N+](=O)[O-])c1C)C1CCCCC1`: the displacement was -10%. As to `c1ccc(C2N(c3ccccc3)CCN2c2ccccc2)cc1`, the displacement was -1.8%.

`O=C(Nc1cccc(NC(=O)c2ccc(Cl)cc2Cl)c1)c1cccc([N+](=O)[O-])c1`: the displacement is 1.3%. In the case of `COc1cc(C(=O)Nc2ccc3oc(-c4ccc5ccccc5c4)nc3c2)cc(OC)c1OC`, the displacement was 17.7%. Next, `COc1cc(C)nc(Nc2nc(C)c3ccc(C)cc3n2)n1`: 13.2%. For the compound `Cc1cccc(C(=O)Nc2cccc3c2CCCC3)c1`, the displacement was -1.2%. The same measure for `O=C(CC1S/C(=N\N=C\c2cccs2)NC1=O)Nc1ccc(C(=O)O)cc1` (stereo not given): 121%; for `CCc1cc2c(C)c(CC)c(=O)oc2cc1O`: 15%; for `COC(=O)c1ccc(NC(=O)c2ccc(Cl)cc2)cc1`: 6%. The same measure for `O=C(Nc1sc2c(c1C(=O)N1CCCCC1)CCCCC2)c1ccc([N+](=O)[O-])cc1`: -2.1%; for `COc1ccccc1-c1c(C(F)(F)F)oc2cc(OCc3cccc(Cl)c3)ccc2c1=O`: 15%.

On to `O=C(Nc1cccc(Cl)c1)Nc1nnc(C(c2ccccc2)c2ccccc2)s1`, for which the displacement is -0.2%. The same measure for `CCc1cc(=O)oc2cc(OCC(=O)c3ccc(-c4ccccc4)cc3)ccc12`: 32.7%.

As for `C/C(=N\O)C1(C)N(O)C(C)(C)C(c2ccc(Br)cc2)=[N+]1[O-]` (stereo not given), the displacement was found to be 12.1%.

As for `O=[N+]([O-])c1ccc(CSc2nnc(-c3ccco3)o2)cc1`, the displacement was determined as 10.6%.

As to `CCOC(=O)NC(Nc1ccc(F)cc1)C(Cl)(Cl)Cl` (stereo not given), the displacement was determined as 15.6%. Turning to `O=C1c2ccccc2NC(c2cccc(O)c2)N1c1ccccc1` (stereo not given), the displacement is -13.5%. Regarding `O=C(COc1ccc([N+](=O)[O-])cc1)Nc1ccc(-c2nc3ccccc3o2)cc1`, the displacement amounted to 49.6%.

In the case of `COc1ccc(N(CC(=O)NC(C)c2ccccc2)S(=O)(=O)c2ccc(C)cc2)c(OC)c1` (stereo not given), the displacement was 2.3%. For the compound `COc1ccccc1CNC(=O)C(=O)Nc1ccccc1C`, the displacement is 2.3%. As for `Cc1cc2nc(SCc3ccccc3)nc(C)c2cc1C`, the displacement amounted to 9.6%. With `COc1ccc2nc(NC(=O)c3ccccc3Br)sc2c1`, the displacement is -6.3%. As to `CC(NC(=O)COc1ccc(/C=N/NS(=O)(=O)c2ccccc2)cc1)c1ccccc1` (stereo not given), the displacement is 4%. The same measure for `O=C1N=C(N2CCCCCC2)S/C1=C\c1cccc2ccccc12`: -9.7%; for `Fc1ccccc1-c1nnc2ccc3ccccc3n12`: -9.5%. As to `Cc1ccc(C2/C(=C(\O)c3ccccc3)C(=O)C(=O)N2c2nncs2)cc1` (stereo not given), the displacement was 11.3%. In the case of `COc1ccc(/C=C/C(=O)Nc2cc(C(F)(F)F)ccc2Cl)cc1`, the displacement worked out at 6.5%.

Regarding `Cc1ccc(NS(=O)(=O)c2ccc([N+](=O)[O-])cc2)nc1`, the displacement came to 15.4%. Turning to `O=C(c1c(Cl)cccc1Cl)N1CCN(c2ccc(Cl)cc2)CC1`, the displacement was -4%. For the compound `Clc1ccc(C2=NN(c3ccccc3)C(c3ccco3)C2)cc1` (stereo not given), the displacement is -6.7%.

For `CN(C)c1ccc(/C=N/N2C(=O)C3C(C2=O)C2C=CC3C23CC3)cc1Br` (stereo not given), the displacement was found to be 5.4%. For `Cc1ccc2ccc(S(=O)(=O)N3CCN(C)CC3)cc2c1`, the displacement came out at 14.2%. With `O=C(c1ccc(Br)o1)N1CCCCC1`, the displacement was -1.2%. Consider `O=C(CSCc1ccccc1)Nc1nnc(/C=C/c2ccccc2)s1`, for which the displacement was 39.9%. As to `Cc1cc(OCC(=O)NCc2ccc(F)cc2)cc(C)c1Cl`, the displacement amounted to 0.4%. Consider `O=C1CCCC2=C1C(c1ccc(Br)cc1)Nc1ccc(C(=O)c3ccccc3)cc1N2` (stereo not given), for which the displacement is -12.7%. Regarding `CC(C)(C)c1ccc(C(=O)NCCSc2nc3ccccc3s2)cc1`, the displacement was found to be 3.4%. `COc1ccc(OCC(=O)Nc2cc(C)ccc2OC)cc1`: the displacement turned out to be 0%. `O=C(c1ccccc1)c1ccc(O)c(O)c1`: the displacement is -4.8%. Next, `Cc1cc(C)cc(NC(=O)C2CC(=O)N=C(N)S2)c1` (stereo not given): 0.7%.

Turning to `CCOC(=O)c1ccc(NC(=O)/C=C/c2ccccc2)cc1`, the displacement is -9.2%. As to `COc1cccc(C(=O)/C=C/c2ccc(F)cc2)c1`, the displacement is -3.3%. `C=CCN1C(=O)/C(=C\c2ccc(-c3ccccc3[N+](=O)[O-])o2)C(=O)NC1=S`: the displacement was determined as 44.4%.

Take `CCn1c(=O)c2c(n3cnnc13)-c1ccccc1CC21CCCCC1`: the displacement is -4.2%. As to `CSc1ccc(S(=O)(=O)NCCSc2ccccn2)cc1`, the displacement came out at 12.3%. The same measure for `Cc1nn2c(C(F)(F)F)cc(-c3ccc(Cl)cc3)nc2c1C(N)=O`: 1.1%; for `CCC(C(=O)Nc1nc(-c2ccccc2)c(C)s1)c1ccccc1` (stereo not given): -9.3%. Turning to `O=C1/C(=C/c2ccc(-c3ccc(Cl)cc3[N+](=O)[O-])o2)Sc2ccccc21`, the displacement was -8.9%. Consider `O=C(N=Nc1c(O)n(Cc2ccccc2)c2ccccc12)c1ccccc1O`, for which the displacement is -4.9%. Consider `CCc1sc(-c2c(C#N)c(N)nc3c2CCCCC3)cc1Br`, for which the displacement was -4.2%. Next, `CC(C)c1ccc(NC(=O)C2CCCCC2C(=O)O)cc1` (stereo not given): -3.6%; `CCN(CC)c1ccc(NC(=O)c2ccc(F)cc2)cc1`: -4.3%. As to `O=C(Nc1cccnc1)c1cc(-c2cccs2)nc2ccccc12`, the displacement is 12.2%. Take `CCOC(=O)c1c(NC(=O)c2cncc(Br)c2)sc2c1CCC2`: the displacement was -3.2%. As to `CC(C)C(NC(=O)c1ccccc1Br)C(=O)O` (stereo not given), the displacement was determined as 2.6%.

For `c1ccc2oc(-c3ccc(NCc4ccc5c(c4)OCO5)cc3)nc2c1`, the displacement is -3.2%. As to `Cc1cccn2c(NC(=O)c3ccc(Br)cc3)c(-c3ccccc3)nc12`, the displacement amounted to 3%. On to `COc1ccccc1NC(=O)CC1SC(=Nc2ccccc2)N(c2ccccc2)C1=O` (stereo not given), for which the displacement was -7.3%.

In the case of `O=C(N/N=C/c1ccc(Br)cc1)C12CC3CCC(CC(C3)C1)C2`, the displacement turned out to be 1.7%. For the compound `C=CCOc1ccc(-c2nc3sc4c(c3c(=O)[nH]2)CCCC4)cc1OC`, the displacement is -4.9%.

For the compound `CC(CCc1ccccc1)NCC#N` (stereo not given), the displacement is -3.3%.

`Cn1c(=O)c2c(ncn2CC(=O)NNC(=S)Nc2ccccc2)n(C)c1=O`: the displacement is -15.2%. Regarding `O=C(Nc1ccc(Cl)c(Cl)c1)N1CCN(C(c2ccccc2)c2ccccc2)CC1`, the displacement was determined as 22.9%.

For the compound `CCOC(=O)c1c(NC(=O)c2ccccc2F)sc2c1CCC(C)C2` (stereo not given), the displacement came out at 3.1%. For `CCOC(=O)c1cccc(P(=O)(C(C)C)C(C)C)c1`, the displacement is -2.4%. In the case of `CCN(CC)S(=O)(=O)c1cc(C(N)=O)ccc1Cl`, the displacement is -12.6%. `COc1ccc(CCNC(=O)c2cc(Cl)ccc2Cl)cc1OC`: the displacement stood at 1.9%.

As for `O=C1NN(c2ccc(Cl)cc2)C(=O)/C1=C\c1cc(Cl)cc(Br)c1O`, the displacement is -5.3%.

Consider `O=C(O)Cc1csc(-c2ccc(Cl)cc2)n1`, for which the displacement is 6.5%. Next, `Nc1nc(-c2ccccc2)cn1/N=C/c1ccc(Cl)cc1Cl`: -9.6%; `CC(=O)Oc1ccc(-c2cccc(C(=O)NC(CO)C(O)c3ccc([N+](=O)[O-])cc3)c2)cc1` (stereo not given): 10.4%; `CCOc1cccc(NC(=O)Nc2cccc(C(F)(F)F)c2)c1`: -2%. Regarding `CCc1cc2c(Nc3ccc(Br)cc3)ncnc2s1`, the displacement is -24.8%. `CCOc1ccc(/C=N/Nc2ccccn2)cc1`: the displacement was -2.3%. For `COc1cc(Br)cc(/C=N/c2ncn[nH]2)c1O`, the displacement is -2.8%.

`CC1=NN(c2ccc(C(=O)O)cc2)C(=O)/C1=C\c1ccc(O)cc1`: the displacement is -50.5%. With `CCC(O)c1ccc(OCc2ccccc2)c(OC)c1` (stereo not given), the displacement is -4.4%. With `Cc1[nH]n(-c2ccccc2)c(=O)c1C(c1c(Cl)cccc1Cl)c1c(C)[nH]n(-c2ccccc2)c1=O`, the displacement is 1.1%. `Cc1nc2ccccc2c(=O)n1/N=C/c1ccccc1F`: the displacement is -7%. On to `COc1cc([N+](=O)[O-])ccc1-c1ccc(/C=C2/C(=N)N3N=C(C(C)C)SC3=NC2=O)o1`, for which the displacement was 77%. Consider `CC(C)CCNC(=O)c1ccc(Cl)cc1Cl`, for which the displacement is -7.2%. Next, `O=C(Nc1ccc(F)cc1)c1ccco1`: 12.9%; `CCC(=O)N1c2ccccc2NC2=C(C(=O)CC(C)(C)C2)C1c1ccc(C#N)cc1` (stereo not given): -13.5%. With `CC1=CC(C)(C)N(C(=O)c2ccc(F)cc2)c2ccc(OC(=O)c3ccc([N+](=O)[O-])cc3)cc21`, the displacement is -7.2%. `Cc1ccc(N(CC(=O)Nc2cccc3ccccc23)S(=O)(=O)c2ccc(F)cc2)cc1`: the displacement amounted to 0.1%.

As to `O=C(c1cc2nc(-c3ccc([N+](=O)[O-])cc3)cc(C(F)(F)F)n2n1)N1CCCC1`, the displacement is 0.3%. Regarding `O=c1c(/C=C(\O)c2ccc(F)cc2)nc2ccccc2n1-c1ccccc1`, the displacement is 4%. In the case of `O=C1NC(=O)N(c2cccc(Br)c2)C(=O)/C1=C/c1cccc([N+](=O)[O-])c1`, the displacement came to 0.3%. Regarding `COc1ccccc1NC(=O)C(=O)N/N=C/c1ccc(C(=O)O)cc1`, the displacement was 6.3%. Next, `O=C(NC(Cc1c[nH]c2ccccc12)C(=O)OCC(=O)c1cccc([N+](=O)[O-])c1)Oc1ccccc1` (stereo not given): 5%; `CC(OCc1ccccc1)C(NC(=O)OC(C)(C)C)C(=O)NCC1CCCO1` (stereo not given): 2.3%; `O=C(c1cccc(S(=O)(=O)N2CCOCC2)c1)N1CCOCC1`: -7.2%.

Take `O=C(Nc1cccc(F)c1)C1CC(=O)N(c2ccccc2)C1` (stereo not given): the displacement came to 7.9%. Next, `Clc1ccc(-c2nc(Cc3ccccc3Cl)no2)cc1`: -7.5%; `COc1ccc(N/C=C/C(=O)c2ccc(Cl)cc2)c(OC)c1`: 18.3%; `COc1cccc(/C=N/NC(=O)c2cc(C)[nH]n2)c1OC`: -9%. The same measure for `COC(=O)c1ccccc1NC(=O)c1ccccc1NC(=O)c1ccc(OC)cc1`: 2.1%.

Take `FC(F)(F)Oc1ccc(N=Cc2ccc(Br)s2)cc1`: the displacement was 12.9%. For the compound `O=C(Nc1ccc(-c2nc3cc(Cl)ccc3o2)cc1)c1cccs1`, the displacement is -12.8%.

As to `COc1ccc(-c2ccc(-c3nnc(-c4cccc(C)c4)o3)cc2)cc1`, the displacement was -5.4%. In the case of `Clc1ccc(N2CCN(N=Cc3cccc(Br)c3)CC2)cc1`, the displacement is -11.5%.

Consider `c1ccc(Nc2nc(-c3ccccc3)[n+](-c3ccccc3)s2)cc1`, for which the displacement was -0.4%.

Take `COc1ccccc1/C=C/C(=O)c1c(-c2ccccc2Cl)c2cc(Br)ccc2[nH]c1=O`: the displacement was 20.5%. Regarding `Cc1cc(-c2ccc(/C=c3\sc4nc5c(C)cc(C)cc5n4c3=O)o2)c(C)c([N+](=O)[O-])c1`, the displacement is -17.2%. On to `CC(=O)N1c2ccccc2Sc2ccccc21`, for which the displacement is -1.9%. In the case of `O=C(Nc1ccccc1C#Cc1ccccc1)c1cccnc1`, the displacement is 1.4%. Next, `CCOC(=O)C1=C(C)N=c2s/c(=C\c3cccs3)c(=O)n2C1c1ccc(N(C)C)cc1` (stereo not given): 3.2%.

(Values after PubChem BioAssay AID1240 (Sanford-Burnham Center for Chemical Genomics, 2008).)
